# Measured values reported in article PMC11995724, “Antibiotic target discovery by integrated phenotypic and activity-based profiling of electrophilic fragments” (Cell chemical biology, 2025).
# Among all 3,200 compounds or so, about 110 (3.4%) showed an effect of 50% or more. The list shows a part of the results.
# Test system: T1, V. cholerae SAD30
# T1 construct: SAD30
# Parameters: species or system S. aureus MSSA476 (TSB) or V. cholerae SAD30 (LB); 384-well bacterial growth screen at 25 uM, OD600 relative to DMSO control
# Conditions: relative growth, OD600, LB; 25 µM; inhibitor
row,Compound,% of control remaining [%]
1,"Cc1nn(-c2ccccc2)c(C)c1CN(C)C(=O)CCl [7-B03, 2-chloro-N-[(3,5-dimethyl-1-phenyl-1H-pyrazol-4-yl)methyl]-N-methylacetamide]",94.6308
2,"O=C(CCl)c1ccc(Oc2ccccc2)cc1 [10-G20, 2-chloro-1-(4-phenoxyphenyl)ethan-1-one]",25.2484
3,"C=CC(=O)N(C)CC(=O)Nc1ccc(N2CCOCC2=O)c(C)c1 [3-J07, N-methyl-N-({[3-methyl-4-(3-oxomorpholin-4-yl)phenyl]carbamoyl}methyl)prop-2-enamide]",93.5012
4,"Cc1csc(C(C#N)C(=O)CCl)n1 (stereo not drawn) [10-D12, 4-chloro-2-(4-methyl-1,3-thiazol-2-yl)-3-oxobutanenitrile]",93.5126
5,"Cc1ccc(Cc2cnc(NC(=O)CCl)s2)cc1 [5-K03, 2-chloro-N-{5-[(4-methylphenyl)methyl]-1,3-thiazol-2-yl}acetamide]",125.081
6,"CN(CC1CCCCC1)C(=O)C(C)(C)NC(=O)CCl [6-A19, 2-(2-chloroacetamido)-N-(cyclohexylmethyl)-N,2-dimethylpropanamide]",92.5206
7,"C=CC(=O)NCc1ccnn1C [1-H20, N-[(1-methyl-1H-pyrazol-5-yl)methyl]prop-2-enamide]",96.9087
8,"O=C(CCl)NCCOc1ccc(F)cc1 [6-A08, 2-chloro-N-[2-(4-fluorophenoxy)ethyl]acetamide]",102.683
9,"O=C(O)c1coc(C(=O)CCl)c1 [10-B07, 5-(2-chloroacetyl)furan-3-carboxylic acid]",101.149
10,"CCc1cc(SC#N)cc(CC)c1NC(=O)CCl [4-J12, 2-chloro-N-[4-(cyanosulfanyl)-2,6-diethylphenyl]acetamide]",87.9879
11,"CC(Cl)C(=O)Nc1sccc1C#N (stereo not drawn) [5-E21, 2-chloro-N-(3-cyanothiophen-2-yl)propanamide]",106.42
12,"Cc1cc(C=C(C#N)C(=O)Nc2ccccc2)c(C)n1CC(C)C [9-A07, 2-cyano-3-[2,5-dimethyl-1-(2-methylpropyl)-1H-pyrrol-3-yl]-N-phenylprop-2-enamide]",101.768
13,"N#CC(=Cc1ccc2c(c1)OCCO2)C(=O)Nc1ccc(F)cc1 [9-K20, 2-cyano-3-(2,3-dihydro-1,4-benzodioxin-6-yl)-N-(4-fluorophenyl)prop-2-enamide]",88.3073
14,"C=CC(=O)NCC1(OC)CCC(C)CC1 (stereo not drawn) [1-P08, N-[(1-methoxy-4-methylcyclohexyl)methyl]prop-2-enamide]",69.9215
15,"C=CC(=O)N1CCC(S(=O)(=O)NC(C)C)C1 (stereo not drawn) [1-D19, 1-(prop-2-enoyl)-N-(propan-2-yl)pyrrolidine-3-sulfonamide]",86.846
16,"N#CC(=Cc1ccccc1)C(=O)NC1CCCCCCC1 [8-G17, 2-cyano-N-cyclooctyl-3-phenylprop-2-enamide]",67.3691
17,"N#CC(=Cc1cc(Cl)ccc1O)C(=O)Nc1cccc2ccccc12 [9-P17, 3-(5-chloro-2-hydroxyphenyl)-2-cyano-N-(naphthalen-1-yl)prop-2-enamide]",90.4827
18,"CC(C)N(C)S(=O)(=O)c1ccc(NC(=O)CCl)cc1 [4-K13, 2-chloro-N-{4-[methyl(propan-2-yl)sulfamoyl]phenyl}acetamide]",95.7516
19,"COc1ccc(-n2c(C)cc(C=C(C#N)C(=O)N(C)OC)c2C)cc1 [9-N16, 2-cyano-N-methoxy-3-[1-(4-methoxyphenyl)-2,5-dimethyl-1H-pyrrol-3-yl]-N-methylprop-2-enamide]",62.6105
20,"COc1ccc(N(C(=O)CCl)C2C=CS(=O)(=O)C2)cc1 (stereo not drawn) [5-H14, 2-chloro-N-(1,1-dioxo-2,3-dihydro-1lambda6-thiophen-3-yl)-N-(4-methoxyphenyl)acetamide]",97.1735
21,"Cc1ccccc1NC(=O)C(C#N)=Cc1cccnc1 [8-D10, 2-cyano-N-(2-methylphenyl)-3-(pyridin-3-yl)prop-2-enamide]",73.8953
22,"O=C1C=CC(=O)N1c1ccc(SC(F)F)cc1 [10-A18, 1-{4-[(difluoromethyl)sulfanyl]phenyl}-2,5-dihydro-1H-pyrrole-2,5-dione]",28.9889
23,"CCc1nc2cc(CNC(=O)C(C)Cl)ccc2n1C1CC1 (stereo not drawn) [6-N09, 2-chloro-N-[(1-cyclopropyl-2-ethyl-1H-1,3-benzodiazol-5-yl)methyl]propanamide]",87.5154

row,Compound,% of control remaining [%]
1,"O=C(CCl)N1N=C(c2cccs2)CC1c1ccccc1O (stereo not drawn) [4-K20, 2-chloro-1-[5-(2-hydroxyphenyl)-3-(thiophen-2-yl)-4,5-dihydro-1H-pyrazol-1-yl]ethan-1-one]",107.138
2,"CC(Cl)C(=O)NC(C)c1nc(-c2cccnc2)cs1 (stereo not drawn) [6-P07, 2-chloro-N-{1-[4-(pyridin-3-yl)-1,3-thiazol-2-yl]ethyl}propanamide]",94.0373
3,"N#CC(=Cc1cccc(O)c1)C(=O)Nc1ccccc1C(=O)O [9-O16, 2-[2-cyano-3-(3-hydroxyphenyl)prop-2-enamido]benzoic acid]",86.1319
4,"CCc1cc(SC#N)cc(C)c1NC(=O)CCl [4-M04, 2-chloro-N-[4-(cyanosulfanyl)-2-ethyl-6-methylphenyl]acetamide]",101.445
5,"CC(O)=C(C#N)C(=O)Nc1ccc(-c2ccccc2Cl)c(Cl)c1 [9-L22, 2-cyano-N-{2,2'-dichloro-[1,1'-biphenyl]-4-yl}-3-hydroxybut-2-enamide]",79.0619
6,"C=CC(=O)Nc1ccc(C(=O)N(C)C[C@@H]2CCC(=O)N2)cc1 [2-L18, N-methyl-N-{[(2S)-5-oxopyrrolidin-2-yl]methyl}-4-(prop-2-enamido)benzamide]",92.6662
7,"N#CC(=Cc1cccc(F)c1)C(=O)NCc1ccccc1 [9-K09, N-benzyl-2-cyano-3-(3-fluorophenyl)prop-2-enamide]",81.9171
8,"C=CC(=O)N1CCC(C(=O)NCc2nccn2-c2ccccc2)CC1 [3-B03, N-[(1-phenyl-1H-imidazol-2-yl)methyl]-1-(prop-2-enoyl)piperidine-4-carboxamide]",117.85
9,"O=C(CCl)Nc1ccc(OC(F)F)cc1 [4-J10, 2-chloro-N-[4-(difluoromethoxy)phenyl]acetamide]",103.86
10,"COC(=O)c1ccc(C=C(C#N)C(=O)NC(C)C)n1C [9-P12, methyl 5-{2-cyano-2-[(propan-2-yl)carbamoyl]eth-1-en-1-yl}-1-methyl-1H-pyrrole-2-carboxylate]",84.7723
11,"CC(C)NC(=O)C(C#N)=Cc1ccc2ccccc2c1 [9-C13, 2-cyano-3-(naphthalen-2-yl)-N-(propan-2-yl)prop-2-enamide]",81.3732
12,"C=CC(=O)N(CCC(N)=O)C1CCOc2ccccc21 (stereo not drawn) [3-F13, N-(2-carbamoylethyl)-N-(3,4-dihydro-2H-1-benzopyran-4-yl)prop-2-enamide]",92.0897
13,"Cc1cnc(-c2cccc(NC(=O)C(C#N)=Cc3ccco3)c2)o1 [9-M18, 2-cyano-3-(furan-2-yl)-N-[3-(5-methyl-1,3-oxazol-2-yl)phenyl]prop-2-enamide]",75.119
14,"O=C(CCl)Nc1nc(-c2cccs2)cs1 [5-D18, 2-chloro-N-[4-(thiophen-2-yl)-1,3-thiazol-2-yl]acetamide]",71.1148
15,"CC(Cl)C(=O)NCCc1nc2cc(F)ccc2s1 (stereo not drawn) [7-P11, 2-chloro-N-[2-(5-fluoro-1,3-benzothiazol-2-yl)ethyl]propanamide]",81.4142
16,"C=CC(=O)NCCc1ccccc1OC [2-O03, N-[2-(2-methoxyphenyl)ethyl]prop-2-enamide]",104.246
17,"CCOC=C(C#N)C(=O)N1CCN(S(=O)(=O)c2cc[nH]n2)CC1 [9-D06, 3-ethoxy-2-[4-(1H-pyrazole-3-sulfonyl)piperazine-1-carbonyl]prop-2-enenitrile]",86.1319
18,"C=CC(=O)N1CCCC1c1cn(C)nc1C (stereo not drawn) [3-M09, 1-[2-(1,3-dimethyl-1H-pyrazol-4-yl)pyrrolidin-1-yl]prop-2-en-1-one]",97.2064
19,"C=CC(=O)N(CC)CC(=O)N1CCN(c2ccsc2C#N)CC1 [3-L05, N-{2-[4-(2-cyanothiophen-3-yl)piperazin-1-yl]-2-oxoethyl}-N-ethylprop-2-enamide]",94.0305
20,"COc1ccc(C)cc1NC(=O)C(C)Cl (stereo not drawn) [5-P22, 2-chloro-N-(2-methoxy-5-methylphenyl)propanamide]",100.2
21,"C=CC(=O)N(Cc1cnn(C2CCC2)c1)C1CCCc2occc21 (stereo not drawn) [2-G07, N-[(1-cyclobutyl-1H-pyrazol-4-yl)methyl]-N-(4,5,6,7-tetrahydro-1-benzofuran-4-yl)prop-2-enamide]",83.8657
22,"CC(=Cc1ccccc1)C=C(C#N)C(=O)Nc1nccs1 [8-F08, 2-cyano-4-methyl-5-phenyl-N-(1,3-thiazol-2-yl)penta-2,4-dienamide]",73.3515
